In the test the target is T1, 重组人VEGF165 (human, UniProt P15692-4 27-191).
T1 construct: also called VEGF双体; 人血管内皮细胞生长因子
T1 sequence: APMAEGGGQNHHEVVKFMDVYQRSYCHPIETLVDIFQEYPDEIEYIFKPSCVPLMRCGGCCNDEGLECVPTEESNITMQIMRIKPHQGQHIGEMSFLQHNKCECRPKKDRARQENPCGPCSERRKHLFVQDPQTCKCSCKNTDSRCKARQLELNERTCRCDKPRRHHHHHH
Description: phage ELISA on coated VEGF after the third round of panning.

B1: 噬菌体单链抗体VA6 (scFv)
scFv: SYELTQPPSVSVAPGQTARITCSGDALGDKYASWYQQKPGQAPVLVIYEDSKRPSGIPERFSGSNSGNTATLTISGTQAEDEADYYCQVKSDNYGYVFGGGTKLTVLGSGGSTITSYNVYYTKLSSSGS[about 100 residues not written out]GWSYNGVDPWGQGTLVTVSS
notes: also called VA6 scFv; 特异性噬菌体抗体VA6
Take B1: the binding result is “binds”.

The values are drawn from patent CN103012589A (SHANGHAI SERUM BIO TECHNOLOGY CO LTD; INST BIOENGINEERING …, dated 2013).
